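In this assay, cells in 96-well plates receive the compound at five concentrations for 48 hours. Endpoints are linearly interpolated between the surrounding concentrations. Here, GI50 denotes the concentration required for 50% inhibition of growth. TGI marks complete inhibition of growth.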 Some results are limits rather than exact numbers.

This test relates to NCI-H322M lung. In words: NCI-60 cell line screen, 48 h.

In the case of `C=C1CCC2C3(C)COC(c4c(F)cccc4F)OC3CCC2(C)C1C/C=C1/C(=O)OCC1O` (stereo unspecified), the GI50 is 10.8 µM and the TGI worked out at 22.7 µM.

With `COc1ccc(CCN2C(=O)/C(=C/c3csc(C#N)n3)SC2=S)cc1`, the GI50 was 15.2 µM and the TGI came out at 29.9 µM.

Regarding `O=C(c1ccc(Cl)cc1)C1[C@H](c2ccccc2Br)[C@@H](c2ccccc2)NC12C(=O)Nc1ccccc12` (stereo partly specified), the GI50 was 9.53 µM and the TGI is > 56 µM.

The values are drawn from PubChem BioAssay (NCI).
